PMC4336329 (PLoS ONE, 2015)
Hit rate of the full screen: of about 310,000 compounds, about 2,200 (0.71%) showed an effect of 50% or more. Effects have a minus sign here. This is one part of the list.

target: human ether-à-go-go-related gene (hERG) potassium channel (human, UniProt Q12809); test: primary screen, population patch clamp on CHO cells stably expressing hERG
Sequence (Q12809 whole entry, looked up): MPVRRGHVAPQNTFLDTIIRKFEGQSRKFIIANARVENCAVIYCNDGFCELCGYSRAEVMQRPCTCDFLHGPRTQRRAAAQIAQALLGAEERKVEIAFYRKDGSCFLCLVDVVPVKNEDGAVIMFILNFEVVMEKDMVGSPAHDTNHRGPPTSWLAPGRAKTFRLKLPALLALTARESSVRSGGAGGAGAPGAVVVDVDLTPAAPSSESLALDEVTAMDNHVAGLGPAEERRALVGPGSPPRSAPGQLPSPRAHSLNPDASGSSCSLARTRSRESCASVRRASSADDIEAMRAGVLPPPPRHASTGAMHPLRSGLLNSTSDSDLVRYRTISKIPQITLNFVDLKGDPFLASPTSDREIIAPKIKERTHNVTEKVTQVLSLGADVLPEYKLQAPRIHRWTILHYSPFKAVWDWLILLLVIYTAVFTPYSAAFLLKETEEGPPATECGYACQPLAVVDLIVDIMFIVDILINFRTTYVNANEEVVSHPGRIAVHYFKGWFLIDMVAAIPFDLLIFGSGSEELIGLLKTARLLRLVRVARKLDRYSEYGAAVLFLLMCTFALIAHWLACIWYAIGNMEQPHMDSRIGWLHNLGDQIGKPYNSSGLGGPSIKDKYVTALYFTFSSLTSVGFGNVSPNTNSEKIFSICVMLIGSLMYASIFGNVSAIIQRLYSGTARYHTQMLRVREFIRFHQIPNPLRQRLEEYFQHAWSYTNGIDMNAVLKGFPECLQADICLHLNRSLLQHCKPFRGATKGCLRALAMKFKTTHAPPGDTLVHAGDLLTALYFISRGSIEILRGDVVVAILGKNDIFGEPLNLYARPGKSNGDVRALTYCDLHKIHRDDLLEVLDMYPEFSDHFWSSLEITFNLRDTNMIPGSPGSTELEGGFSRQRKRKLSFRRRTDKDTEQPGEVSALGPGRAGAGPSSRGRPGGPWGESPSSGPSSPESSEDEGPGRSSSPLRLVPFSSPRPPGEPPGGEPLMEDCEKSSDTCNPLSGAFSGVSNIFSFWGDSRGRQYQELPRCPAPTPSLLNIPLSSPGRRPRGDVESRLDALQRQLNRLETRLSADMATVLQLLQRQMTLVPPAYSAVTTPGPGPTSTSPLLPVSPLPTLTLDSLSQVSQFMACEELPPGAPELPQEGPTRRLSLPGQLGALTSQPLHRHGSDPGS

Compared with `COC(=O)NNC(=O)COc1ccc(Br)c(C)c1`, `CCOCC(=O)Nc1cc([N+](=O)[O-])ccc1C` is higher in “hERG current change (%, negative = inhibition) at 1uM” value: -20.7% for the first, 5.71% for the second.

Compared with `CN(C)c1ccc(C(=O)c2ccc(O)cc2O)cc1`, `C/C(=N/NC(=O)Cc1c(C)[nH][nH]c1=O)c1ccc(O)cc1` is higher in “hERG current change (%, negative = inhibition) at 1uM” value: -2.15% for the first, 16.5% for the second.

Compared with `O=C(NCc1ccco1)C1CC(c2ccc(F)cc2)=NO1` (stereo not drawn), `c1ccc(-c2nnc(C3CC(c4ccncc4)=NO3)o2)cc1` (stereo not drawn) is lower in “hERG current change (%, negative = inhibition) at 1uM” value: 9.9% for the first, 3.55% for the second.

First: Cc1ccc2c(c1)N(CCC(=O)N1CCC3(CC1)OCCO3)C(=O)CO2
Second: Cc1ccc(C(=O)N2C3=C(CCCC3)C(=O)NC23CCCCC3)cc1
The “hERG current change (%, negative = inhibition) at 1uM” value of the first is lower: -11.7% for the first, 22.7% for the second.

First: COc1ccc(OC)c(NC(=O)CCCN2C(=S)NC(C)(C)CC2C)c1 (stereo not drawn)
Second: COCCn1c(SCC(=O)Nc2ccc(OC)cc2OC)nc2ccccc2c1=O
The “hERG current change (%, negative = inhibition) at 1uM” value of the first is lower: -3.08% for the first, 11.1% for the second.

Compared with `COc1ccc(NC(=O)CN(C)C(=O)c2cc(-c3ccc(OC)cc3)nc3ccccc23)cc1`, `CCOC(=O)c1cc(-c2ccccc2)n(CC(=O)Nc2ccc(OC)cc2)c1C` is lower in “hERG current change (%, negative = inhibition) at 1uM” value: 10.4% for the first, 7.73% for the second.

Going from `CCN(CC(=O)Nc1ccccc1C(F)(F)F)C(=O)Cc1ccccc1` to `O=C(O)c1ccccc1-c1ccccc1C(=O)NCc1cccnc1`, the “hERG current change (%, negative = inhibition) at 1uM” value rises from 7.63% to 17.6%.

First: CCc1cc(=O)[nH]c(SCC(=O)NCc2ccc3c(c2)OCO3)n1
Second: O=C(CCCn1c(=S)[nH]c2cc3c(cc2c1=O)OCO3)NCc1cccc(Cl)c1
The “hERG current change (%, negative = inhibition) at 1uM” value of the first is lower: 12% for the first, 20% for the second.

First: O=C(NCCc1ccccc1)C(=O)c1cn(CC(=O)N2CCCC2)c2ccccc12
Second: O=C(Cn1c(=O)c2c(ncn2C2CCCC2)n(Cc2ccccc2)c1=O)N1CCc2ccccc21
The “hERG current change (%, negative = inhibition) at 1uM” value of the first is higher: 14.4% for the first, 13.1% for the second.

Going from `Cc1nnc2n1-c1ccc(Br)cc1C(c1ccccc1Cl)=NC2` to `Cc1cccc(C2C3=C(CCCC3=O)N=C3c4ccccc4C(=O)C32)c1` (stereo not drawn), the “hERG current change (%, negative = inhibition) at 1uM” value rises from -14.4% to 7.81%.

Compared with `CCn1c(SCC(=O)Nc2ccccc2C(=O)OC)nnc1-c1ccc(N)cc1`, `CCn1c(SCC(=O)Nc2ccc(C(=O)OC)cc2)nnc1-c1cccs1` is lower in “hERG current change (%, negative = inhibition) at 1uM” value: -11.7% for the first, -12.9% for the second.

First: N#C/C=C/N1CCC(Cc2ccccc2)CC1
Second: CN(C)C1=NCCN1CCc1ccccc1
The “hERG current change (%, negative = inhibition) at 1uM” value of the first is lower: 0.255% for the first, 15.6% for the second.

Compared with `OCCC1CN(Cc2ccc3cccc(F)c3n2)CCN1Cc1ccccc1` (stereo not drawn), `CCn1c(=O)c(C(=O)CN(C)Cc2ccc(F)cc2)c(N)n(Cc2ccccc2)c1=O` is lower in “hERG current change (%, negative = inhibition) at 1uM” value: -1.84% for the first, -33.6% for the second.

Compared with `Cn1c(-c2ccccc2)c[n+]2c1CCCCC2.[Br-]`, `CN(C(=O)CSc1nnc(-c2ccccc2)n1C)C1CCS(=O)(=O)C1` (stereo not drawn) is higher in “hERG current change (%, negative = inhibition) at 1uM” value: 8.57% for the first, 8.93% for the second.

Compared with `Cc1ccc(S(=O)(=O)N2CCOCC2)cc1NC(=O)CSc1nc2ccccc2c(=O)n1Cc1ccccc1`, `CCOCC(=O)Nc1ccc(S(=O)(=O)N2CCC(c3nc4ccccc4[nH]3)CC2)cc1` is higher in “hERG current change (%, negative = inhibition) at 1uM” value: 2.96% for the first, 11.7% for the second.

First: CN(CCCC(=O)N1CCCC(C(N)=O)C1)S(=O)(=O)c1ccc(F)cc1 (stereo not drawn)
Second: Cc1ccc(S(=O)(=O)N2CCCC(C(=O)NCCc3ccc(S(N)(=O)=O)cc3)C2)cc1 (stereo not drawn)
The “hERG current change (%, negative = inhibition) at 1uM” value of the first is lower: -0.555% for the first, 11.7% for the second.

First: CN1Cc2c(N3CCOCC3)nc3sc(C(=O)c4ccccc4)c(N)c3c2CC1(C)C
Second: O=C(OCc1cccc(Cl)c1)c1cc(S(=O)(=O)N2CCCCC2)ccc1N1CCOCC1
The “hERG current change (%, negative = inhibition) at 1uM” value of the first is lower: 12.7% for the first, 12.9% for the second.

Going from `CCCCn1c(CCNC(=O)c2cccs2)nc2ccccc21` to `O=C(O)CCNC(=O)CCCn1nnc2ccccc2c1=O`, the “hERG current change (%, negative = inhibition) at 1uM” value rises from -1.24% to 15.9%.

Going from `CC(=O)NC1=NN(C(C)=O)C2(S1)C(=O)N(C(C)C)c1ccc(C)cc12` (stereo not drawn) to `Cc1ccc(NC(=O)CN(C)C(=O)c2cc(S(=O)(=O)N(C)C)ccc2N2CCCC2)cc1`, the “hERG current change (%, negative = inhibition) at 1uM” value rises from 11.8% to 17.1%.

Compared with `CCCNC(=O)CSc1nc2ccc(OCC)cc2s1`, `CCOc1ccc(NC(=S)NC(=O)/C=C/c2ccco2)cc1` is higher in “hERG current change (%, negative = inhibition) at 1uM” value: 11.2% for the first, 11.5% for the second.

First: CC(=O)c1ccc(S(=O)(=O)N2CCN(C(=O)CSc3ccc(C)c(C)c3)CC2)cc1
Second: CN1CCN(C(=O)c2ccc(COc3ccc(Cl)cc3Cl)cc2)CC1
The “hERG current change (%, negative = inhibition) at 1uM” value of the first is higher: 6.06% for the first, -4.16% for the second.

Compared with `Cc1ccsc1C(=O)C1CCCN(Cc2cnc(N)nc2)C1` (stereo not drawn), `Cc1ccc(Oc2ncc(CN3CCOCC3)s2)cc1` is higher in “hERG current change (%, negative = inhibition) at 1uM” value: 4.23% for the first, 16.5% for the second.

Compared with `COc1cccc(OC)c1C(=O)N1CCN(Cc2cccnc2)CC1`, `COc1cc(CCC(=O)Nc2ccncc2Cl)cc(OC)c1OC` is lower in “hERG current change (%, negative = inhibition) at 1uM” value: 17.5% for the first, 1.85% for the second.

Compared with `CCN1C(C(=O)Nc2cc(C)on2)=C(O)c2ccccc2S1(=O)=O`, `CC(=O)N1c2ccc(S(=O)(=O)NCCC(=O)Nc3ccccc3C)cc2CC1C` (stereo not drawn) is lower in “hERG current change (%, negative = inhibition) at 1uM” value: 17.4% for the first, 10% for the second.

Going from `Cc1ccc(CC2CC(=O)N(c3cc(Cl)ccn3)C2=O)cc1` (stereo not drawn) to `Cc1ccc(-c2nc(-c3ccccn3)sc2CC(=O)O)cc1`, the “hERG current change (%, negative = inhibition) at 1uM” value rises from 6.44% to 6.81%.

First: COc1ccc(-c2nc3ccccc3nc2-c2ccccc2)cc1OC
Second: COc1cccc(CNc2nc(C(F)(F)F)nc3ccccc23)c1
The “hERG current change (%, negative = inhibition) at 1uM” value of the first is lower: 9.5% for the first, 10.4% for the second.

Going from `C/C(=N\NC(=O)COc1cccc(Cl)c1)c1ccc2c(c1)OCCO2` to `CCc1ccc(NC(=O)COc2ccc3c(c2)OCO3)cc1`, the “hERG current change (%, negative = inhibition) at 1uM” value falls from 14.6% to 13.1%.

Compared with `C1CCc2c(nnc3c2-c2nonc2CC3)C1`, `CC(C)NC(=O)c1ccc2c3n(nc2c1)-c1ccccc1CO3` is higher in “hERG current change (%, negative = inhibition) at 1uM” value: 5.18% for the first, 10% for the second.

First: CCc1ccccc1NC(=O)C1CCN(S(=O)(=O)c2ccc3c(c2)N(C(C)=O)CCO3)CC1
Second: CN(c1ccccc1)S(=O)(=O)c1cccc(C(=O)OCC(=O)NCCCN2CCCC2=O)c1
The “hERG current change (%, negative = inhibition) at 1uM” value of the first is lower: 13% for the first, 13.2% for the second.

`CCOC(=O)c1nc(C)n(-c2ccc([N+](=O)[O-])cc2)n1` and `Nc1nn(-c2ccccc2)nc1C(=O)OCc1ccccc1` are the same in “hERG current change (%, negative = inhibition) at 1uM” value: 10.3% for the first, 10.3% for the second.

Compared with `O=[N+]([O-])c1cccc(CCl)c1`, `COCCCNC(=S)Nc1ccc(C)cc1[N+](=O)[O-]` is lower in “hERG current change (%, negative = inhibition) at 1uM” value: 2.67% for the first, -0.0239% for the second.

Going from `CN(CCOc1ccc(Br)cc1)CC(O)c1ccccc1.O=C(O)C(=O)O` (stereo not drawn) to `c1ccc(OCCn2cnc3ccccc32)cc1`, the “hERG current change (%, negative = inhibition) at 1uM” value rises from -20.4% to 1.94%.

First: Cc1cc(C(F)F)n2nc(C(=O)Nc3sc4c(c3C#N)CCC(C)C4)nc2n1 (stereo not drawn)
Second: CC(=O)N=c1c(C#N)cc2c(=O)n3cccc(C)c3nc2n1Cc1ccco1
The “hERG current change (%, negative = inhibition) at 1uM” value of the first is lower: 0.898% for the first, 6.34% for the second.

First: COC(=O)c1ccccc1NC(=O)/C=N/O
Second: Fc1ccccc1NC(=S)N/N=C/c1ccccc1Br
The “hERG current change (%, negative = inhibition) at 1uM” value of the first is lower: 8.41% for the first, 8.93% for the second.

First: N#Cc1nc(-c2ccc(OCc3ccc(Cl)cc3)cc2)oc1NCc1cccnc1
Second: CCOc1ccc(-c2nnc3sc(COc4ccc(Cl)cc4)nn23)cc1
The “hERG current change (%, negative = inhibition) at 1uM” value of the first is higher: 16.4% for the first, 1.28% for the second.

Going from `COc1ccc(NC(=S)N2CCNC(=O)C2CC(=O)Nc2cccc(Cl)c2C)cc1` (stereo not drawn) to `Cn1c(CCN2CCOCC2)nc2cc(NC(=O)COc3ccc(Cl)cc3)ccc21`, the “hERG current change (%, negative = inhibition) at 1uM” value rises from -5.98% to 2%.

First: CCN(CC(=O)Nc1cc(Cl)ccc1OC)CC(=O)NC1CCS(=O)(=O)C1.O=C(O)C(=O)O (stereo not drawn)
Second: CCOC(=O)C1(Cc2cccc(Cl)c2)CCCN(C(=O)c2cnn(CC)c2)C1 (stereo not drawn)
The “hERG current change (%, negative = inhibition) at 1uM” value of the first is lower: 4.29% for the first, 5.54% for the second.

First: COCc1cc(=O)[nH]c(/N=C(\N)Nc2ccc(C)cc2)n1
Second: CCc1nnc(NS(=O)(=O)c2ccc(NC(=S)NC(=O)c3ccc(F)cc3)cc2)s1
The “hERG current change (%, negative = inhibition) at 1uM” value of the first is lower: -15.3% for the first, 9.42% for the second.

Going from `Cc1cc(OC(=O)N(C)C)nc(SCc2c(Cl)cccc2Cl)n1` to `Clc1cccc(Cl)c1CNc1ccc(N2CCCC2)cc1`, the “hERG current change (%, negative = inhibition) at 1uM” value falls from 6.84% to 0.168%.

First: C/C(CC(=O)Nc1cc(C)ccn1)=N\NC(=O)c1cccc(C)c1
Second: Cc1ccc(C)n1C(CC(=O)O)c1ccc(C#N)cc1 (stereo not drawn)
The “hERG current change (%, negative = inhibition) at 1uM” value of the first is lower: 7.83% for the first, 11% for the second.

First: COc1ccccc1NS(=O)(=O)CC12CCC(CC1=O)C2(C)C (stereo not drawn)
Second: COc1ccccc1/C=C/C=N/n1c(C2CCCCC2)n[nH]c1=S
The “hERG current change (%, negative = inhibition) at 1uM” value of the first is higher: 8.45% for the first, 6.57% for the second.

First: C=CCn1c(=N)c(S(=O)(=O)c2ccc(C)c(C)c2)cc2c(=O)n3ccccc3nc21
Second: CC(=O)Nc1ccc(Nc2nnc(-c3ccc(C)c(S(=O)(=O)NCC4CCCO4)c3)c3ccccc23)cc1 (stereo not drawn)
The “hERG current change (%, negative = inhibition) at 1uM” value of the first is higher: 13.2% for the first, 7.6% for the second.

First: COc1cc(NC(=S)N(C)C)c(OC)cc1Cl
Second: COc1cc(Br)c(CC(=O)NC2CC2)cc1OC
The “hERG current change (%, negative = inhibition) at 1uM” value of the first is lower: 11.9% for the first, 15.3% for the second.

Going from `CCCCCCCC(=O)Nc1ccc(S(=O)(=O)Nc2nccs2)cc1` to `CN(C)C(CNS(=O)(=O)c1ccc(F)cc1)c1cccnc1` (stereo not drawn), the “hERG current change (%, negative = inhibition) at 1uM” value rises from 7.29% to 27.6%.

Going from `O=C(NC1CCSC1=O)c1cccc(Cl)c1` (stereo not drawn) to `O=C(c1ccc(F)cc1F)N1CCCc2ccccc21`, the “hERG current change (%, negative = inhibition) at 1uM” value rises from 6.05% to 10.3%.
